From the supplement of paper PMC8728848
The other results are listed elsewhere or left out.

Experiments:
Assay in all cases: glycan array binding signal (z-score within array); higher = stronger binding
Conditions in all cases: glycan notation: IUPAC condensed, linker removed
[1] = target: Fuc(a1-2)[GalNAc(a1-3)]Gal(b1-3)GlcNAc(b1-3)GalNAc
In short: (§1)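 Glycan array data were curated from 3228 arrays in the Consortium for Functional Glycomics database and kept only where the protein sequence was available. Glycan names were converted to IUPAC-condensed notation, and columns mapping to the same glycan were averaged. The binding signal is a within-array Z-score, averaged across arrays of the same protein sequence at different concentrations or buffers and across linkers. Negative Z-scores can be read as non-binding.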

[2] = target: Fuc(a1-2)[GalNAc(a1-3)]Gal(b1-3)GlcNAc(b1-6)GalNAc
In short: as §1

[3] = target: Fuc(a1-2)[GalNAc(a1-3)]Gal(b1-4)Glc
In short: as §1

[4] = target: Fuc(a1-2)[GalNAc(a1-3)]Gal(b1-4)GlcNAc
In short: as §1

[5] = target: Fuc(a1-2)[GalNAc(a1-3)]Gal(b1-4)GlcNAc(b1-2)Man
In short: as §1

[6] = target: Fuc(a1-2)[GalNAc(a1-3)]Gal(b1-4)GlcNAc(b1-2)Man(a1-3)[Fuc(a1-2)[GalNAc(a1-3)]Gal(b1-4)GlcNAc(b1-2)Man(a1-6)]Man(b1-4)GlcNAc(b1-4)GlcNAc
In short: as §1

[7] = target: Fuc(a1-2)[GalNAc(a1-3)]Gal(b1-4)GlcNAc(b1-2)Man(a1-3)[Fuc(a1-2)[GalNAc(a1-3)]Gal(b1-4)GlcNAc(b1-2)Man(a1-6)]Man(b1-4)GlcNAc(b1-4)[Fuc(a1-6)]GlcNAc
In short: as §1

[8] = target: Fuc(a1-2)[GalNAc(a1-3)]Gal(b1-4)GlcNAc(b1-3)Gal(b1-4)GlcNAc
In short: as §1

[9] = target: Fuc(a1-2)[GalNAc(a1-3)]Gal(b1-4)GlcNAc(b1-3)Gal(b1-4)GlcNAc(b1-3)Gal(b1-4)GlcNAc
In short: as §1

[10] = target: Fuc(a1-2)[GalNAc(a1-3)]Gal(b1-4)GlcNAc(b1-3)GalNAc
In short: as §1

[11] = target: Fuc(a1-2)[GalNAc(a1-3)]Gal(b1-4)GlcNAc(b1-3)[Fuc(a1-2)[GalNAc(a1-3)]Gal(b1-4)GlcNAc(b1-6)]GalNAc
In short: as §1

[12] = target: Fuc(a1-2)[GalNAc(a1-3)]Gal(b1-4)GlcNAc(b1-6)GalNAc
In short: as §1

[13] = target: Fuc(a1-2)[GalNAc(a1-3)]Gal(b1-4)[Fuc(a1-3)]GlcNAc
In short: as §1

[14] = target: Fuc(a1-2)[GalNAc(a1-3)]Gal(b1-4)[Fuc(a1-3)]GlcNAc(b1-3)GalNAc
In short: as §1

[15] = target: Fuc(a1-2)[GalNAc(a1-4)]Gal(b1-4)GlcNAc
In short: as §1

[16] = target: Fuc(a1-2)[GalNAc(b1-3)]Gal
In short: as §1

[17] = target: Fuc(a1-3)GlcNAc
In short: as §1

[18] = target: Fuc(a1-3)[Gal(b1-4)]Glc6S
In short: as §1

[19] = target: Fuc(a1-3)[Gal(b1-4)]GlcNAc
In short: as §1

[20] = target: Fuc(a1-3)[Gal(b1-4)]GlcNAc(b1-2)Man
In short: as §1

[21] = target: Fuc(a1-3)[Gal(b1-4)]GlcNAc(b1-2)Man(a1-3)[Fuc(a1-3)[Gal(b1-4)]GlcNAc(b1-2)Man(a1-6)]Man(b1-4)GlcNAc(b1-4)GlcNAc
In short: as §1

[22] = target: Fuc(a1-3)[Gal(b1-4)]GlcNAc(b1-2)Man(a1-3)[Fuc(a1-3)[Gal(b1-4)]GlcNAc(b1-2)Man(a1-6)]Man(b1-4)GlcNAc(b1-4)[Fuc(a1-6)]GlcNAc
In short: as §1

[23] = target: Fuc(a1-3)[Gal(b1-4)]GlcNAc(b1-3)Gal(b1-3)[Fuc(a1-4)]GlcNAc
In short: as §1

[24] = target: Fuc(a1-3)[Gal(b1-4)]GlcNAc(b1-3)Gal(b1-4)[Fuc(a1-3)]GlcNAc
In short: as §1

[25] = target: Fuc(a1-3)[Gal(b1-4)]GlcNAc(b1-3)Gal(b1-4)[Fuc(a1-3)]GlcNAc(b1-3)Gal(b1-4)[Fuc(a1-3)]GlcNAc
In short: as §1

[26] = target: Fuc(a1-3)[Gal(b1-4)]GlcNAc(b1-3)GalNAc
In short: as §1

[27] = target: Fuc(a1-3)[Gal(b1-4)]GlcNAc(b1-6)GalNAc
In short: as §1

[28] = target: Fuc(a1-3)[Gal(b1-4)]GlcNAc(b1-6)[Gal(b1-3)GlcNAc(b1-3)]Gal(b1-4)Glc
In short: as §1

[29] = target: Fuc(a1-3)[Gal(b1-4)]GlcNAc6S
In short: as §1

[30] = target: Fuc(a1-3)[Gal3S(b1-4)]Glc
In short: as §1

[31] = target: Fuc(a1-3)[Gal3S(b1-4)]GlcNAc
In short: as §1

[32] = target: Fuc(a1-3)[Gal3S(b1-4)]GlcNAc6S
In short: as §1

[33] = target: Fuc(a1-3)[GalNAc(b1-4)]GlcNAc
In short: as §1

[34] = target: Fuc(a1-3)[GalNAc(b1-4)]GlcNAc6S
In short: as §1

[35] = target: Fuc(a1-4)GlcNAc
In short: as §1

[36] = target: Fuc(b1-3)GlcNAc
In short: as §1

[37] = target: Gal(a1-2)Gal
In short: as §1

[38] = target: Gal(a1-3)Gal
In short: as §1

[39] = target: Gal(a1-3)Gal(b1-3)GlcNAc
In short: as §1

[40] = target: Gal(a1-3)Gal(b1-3)GlcNAc(b1-2)Man
In short: as §1

[41] = target: Gal(a1-3)Gal(b1-3)GlcNAc(b1-2)Man(a1-3)[Gal(a1-3)Gal(b1-3)GlcNAc(b1-2)Man(a1-6)]Man(b1-4)GlcNAc(b1-4)GlcNAc
In short: as §1

[42] = target: Gal(a1-3)Gal(b1-3)GlcNAc(b1-3)GalNAc
In short: as §1

[43] = target: Gal(a1-3)Gal(b1-3)GlcNAc(b1-6)GalNAc
In short: as §1

[44] = target: Gal(a1-3)Gal(b1-3)[Fuc(a1-4)]GlcNAc(b1-2)Man(a1-3)[Gal(a1-3)Gal(b1-3)[Fuc(a1-4)]GlcNAc(b1-2)Man(a1-6)]Man(b1-4)GlcNAc(b1-4)GlcNAc
In short: as §1

[45] = target: Gal(a1-3)Gal(b1-4)Glc
In short: as §1

B1: MpAFP NterminalRI GFP (Marinomonas primoryensis) (protein)
chain: MSDNQFPFATLGNAIGFITKLDGSVTVQSIDGQERVLKLGDPIFFGETVLTGGSGSVTIAFVDGTDVVIGGDSIVEMTDEIYNTGDNEDLVADSSSEIDALQNAILAGDDPTLIQDAPAAGNTLADQQRVDVSIERNDNSAQAGFGVDTQSSLPTYGYDTDNGNGGQATEREYSAPSLSRTLNQSPLLEHHHHHH
glycan array binding signal (z-score) [1]: 1.33 | glycan array binding signal (z-score) [2]: -0.494 | glycan array binding signal (z-score) [3]: -0.684 | glycan array binding signal (z-score) [4]: -0.567 | glycan array binding signal (z-score) [5]: -0.305 | glycan array binding signal (z-score) [6]: -0.078 | glycan array binding signal (z-score) [7]: -0.21 | glycan array binding signal (z-score) [8]: 0.153 | glycan array binding signal (z-score) [9]: 0.104 | glycan array binding signal (z-score) [10]: 0.195 | glycan array binding signal (z-score) [11]: -0.542 | glycan array binding signal (z-score) [12]: -0.33 | glycan array binding signal (z-score) [13]: -0.086 | glycan array binding signal (z-score) [14]: -0.054 | glycan array binding signal (z-score) [15]: -0.466 | glycan array binding signal (z-score) [16]: -0.412 | glycan array binding signal (z-score) [17]: 0.478 | glycan array binding signal (z-score) [18]: 0.539 | glycan array binding signal (z-score) [19]: -0.377 | glycan array binding signal (z-score) [20]: -0.193 | glycan array binding signal (z-score) [21]: -0.554 | glycan array binding signal (z-score) [22]: 0.349 | glycan array binding signal (z-score) [23]: 0.65 | glycan array binding signal (z-score) [24]: 0.109 | glycan array binding signal (z-score) [25]: -0.311 | glycan array binding signal (z-score) [26]: 0.476 | glycan array binding signal (z-score) [27]: 0.037 | glycan array binding signal (z-score) [28]: -0.1 | glycan array binding signal (z-score) [29]: 2.35 | glycan array binding signal (z-score) [30]: -0.447 | glycan array binding signal (z-score) [31]: -0.536 | glycan array binding signal (z-score) [32]: 0.109 | glycan array binding signal (z-score) [33]: -0.088 | glycan array binding signal (z-score) [34]: -0.366 | glycan array binding signal (z-score) [35]: 2.46 | glycan array binding signal (z-score) [36]: 0.401 | glycan array binding signal (z-score) [37]: 0.182 | glycan array binding signal (z-score) [38]: -0.531 | glycan array binding signal (z-score) [39]: -0.195 | glycan array binding signal (z-score) [40]: -0.467 | glycan array binding signal (z-score) [41]: 0.159 | glycan array binding signal (z-score) [42]: -0.294 | glycan array binding signal (z-score) [43]: -0.446 | glycan array binding signal (z-score) [44]: 1.99 | glycan array binding signal (z-score) [45]: 0.421
